# Publication PMC4336329 (PLoS ONE, 2015)
# The whole screen tested about 310,000 compounds, of which about 2,200 (0.71%) showed an effect of 50% or more. The effect is printed as a negative number. Some of the results follow.
# Target: human ether-à-go-go-related gene (hERG) potassium channel (human, UniProt Q12809)
# Experiment: primary screen, population patch clamp on CHO cells stably expressing hERG
# human ether-à-go-go-related gene (hERG) potassium channel, sequence (Q12809 whole entry, looked up): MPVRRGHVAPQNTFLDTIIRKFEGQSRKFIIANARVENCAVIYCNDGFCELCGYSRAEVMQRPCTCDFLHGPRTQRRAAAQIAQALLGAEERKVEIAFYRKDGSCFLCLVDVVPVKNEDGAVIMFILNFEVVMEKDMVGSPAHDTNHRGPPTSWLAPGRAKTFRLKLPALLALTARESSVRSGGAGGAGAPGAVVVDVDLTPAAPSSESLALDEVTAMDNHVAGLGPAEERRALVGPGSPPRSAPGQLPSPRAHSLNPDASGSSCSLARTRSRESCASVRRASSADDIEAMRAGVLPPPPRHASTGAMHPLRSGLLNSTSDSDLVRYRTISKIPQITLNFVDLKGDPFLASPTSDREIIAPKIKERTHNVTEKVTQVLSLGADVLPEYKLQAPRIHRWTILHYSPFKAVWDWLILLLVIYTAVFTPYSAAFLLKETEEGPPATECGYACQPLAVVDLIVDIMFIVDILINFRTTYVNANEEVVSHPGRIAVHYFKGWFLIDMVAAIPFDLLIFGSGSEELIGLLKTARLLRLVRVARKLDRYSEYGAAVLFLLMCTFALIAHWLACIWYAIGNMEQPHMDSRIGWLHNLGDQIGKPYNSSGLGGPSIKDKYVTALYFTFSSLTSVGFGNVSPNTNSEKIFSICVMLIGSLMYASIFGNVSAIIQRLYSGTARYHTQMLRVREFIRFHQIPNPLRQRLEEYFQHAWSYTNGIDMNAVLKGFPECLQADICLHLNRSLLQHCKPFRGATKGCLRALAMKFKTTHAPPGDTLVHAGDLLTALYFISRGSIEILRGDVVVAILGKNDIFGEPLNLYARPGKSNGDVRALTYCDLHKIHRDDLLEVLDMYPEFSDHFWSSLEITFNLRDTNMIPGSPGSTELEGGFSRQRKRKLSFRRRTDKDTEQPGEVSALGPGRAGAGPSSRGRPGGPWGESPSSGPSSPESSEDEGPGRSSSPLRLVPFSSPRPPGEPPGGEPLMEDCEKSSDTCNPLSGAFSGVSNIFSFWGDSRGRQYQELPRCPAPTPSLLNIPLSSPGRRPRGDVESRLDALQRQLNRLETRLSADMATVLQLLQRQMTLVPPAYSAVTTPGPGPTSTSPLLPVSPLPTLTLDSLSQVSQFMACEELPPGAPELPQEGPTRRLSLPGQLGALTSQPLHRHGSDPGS
row,Structure (SMILES),"hERG current change (%, negative = inhibition) at 1uM [%]"
1,O=C(NCCc1ccccc1)c1ccccc1NC(=O)C1CCCCC1C(=O)O (stereo not shown),6.28
2,C=CCN1C(=O)C(C)(C)Nc2ccccc21,1.71
3,O=C1CCC(=O)N1CC1CC2CCC1C2 (stereo not shown),-0.0728
4,COc1ccc(S(=O)(=O)NCC(c2ccco2)N2CCc3ccccc32)cc1 (stereo not shown),8.58
5,COc1cccc(NC(=O)CN(C)C(=O)CCNS(=O)(=O)c2ccc(C)cc2)c1,4.92
6,COCC1=C(C(=O)OC)C(c2cccs2)n2ncnc2N1 (stereo not shown),13.3
7,COc1cc(NC(=O)C2CCCN2S(=O)(=O)c2ccc3c(c2)CC(C)N3C(C)=O)cc(OC)c1 (stereo not shown),-3.09
8,C=CCN(c1ccccc1Cl)S(=O)(=O)c1cccc(C(=O)NCCc2ccc(OC)cc2)c1,0.98
9,CC(C)(CNC(=O)c1ccc(NS(=O)(=O)c2ccc(F)cc2)cc1)N1CCOCC1,3.14
10,CCOC(=O)NC(=O)CN1C(=O)NC2(CCc3ccccc32)C1=O (stereo not shown),13.6
11,CC(C)(C)C(=O)COC(=O)c1cc(-c2ccncc2)nc2ccccc12,6.46
12,COc1ccc(CNC2CCN(Cc3ccccc3)CC2)cc1,-3.31
13,CCOC(=O)C1=C(C)NC2=C(C(=O)C(C(=O)OCC)C(c3ccc(OC)cc3)C2)C1c1ccccn1 (stereo not shown),11.4
14,COc1ccc(C)cc1NC(=O)C/C(C)=N/NC(=O)Cc1cccc2ccccc12,1.45
15,O=C(c1ccc(Oc2ccc([N+](=O)[O-])cc2Cl)cc1)N1CCCC1,-3.03
16,CCOc1cc(/C=N/NC(=O)CN2CCCCC2)ccc1O,1.96
17,Cc1noc(NS(=O)(=O)c2ccc(NC(=O)CCN3C(=O)c4ccccc4C3=O)cc2)c1C,5.69
18,Cc1nc2ccc(NC(=O)N3CCC(c4ccccc4)C3)cc2nc1C (stereo not shown),4.24
19,O=C(NCc1nnc2c(C(F)(F)F)cc(Cl)cn12)c1cccs1,5.82
20,COC(=O)[C@]1(C)CCC[C@@]2(C)C3CC[C@@]4(C)C[C@]3(CCC21)CC(=O)N4Cc1ccc(OC)cc1 (stereo partly shown),11.9
21,O=C(O)C1C2C=CC(C2)C1C(=O)NC1CCS(=O)(=O)C1 (stereo not shown),13.2
22,Cc1ccc(O)c(C(=O)c2cnn(-c3ccccc3)c2)c1,15

row,Structure (SMILES),"hERG current change (%, negative = inhibition) at 1uM [%]"
1,Cc1ccccc1Nc1nnc(SCC(=O)NC(=O)Nc2ccc3c(c2)OCCO3)s1,2.56
2,CCC(=O)Nc1nc2c(OC)ccc(C)c2s1,9.19
3,COc1ccc(C(=O)C2CCCN(Cc3ccc(NC(C)=O)cc3)C2)cc1OC (stereo not shown),8.1
4,COc1ccc(/C=N/NC(=O)c2ccc(Cn3cc([N+](=O)[O-])cn3)o2)c(OC)c1C,16
5,COC(=O)c1c(N)c(C#N)c2n1CCCCC2,6.54
6,Cc1ccc(/C=N/N=C2\SCC(=O)N2CC2CC2)cc1,10.4
7,COc1ccc(OC)c(NC(=O)Nc2c(O)ccc3ccccc23)c1,5.38
8,CCOC(=O)c1csc(-c2snnc2C)n1,10.4
9,CCc1nn(CC(=O)NCc2cccnc2)c(=O)c2cc3occc3n12,-0.822
10,CN1N=C2c3ccccc3CCCC2C1c1ccc(F)cc1 (stereo not shown),13.3
11,CCCn1c2ccccc2c2cnn(CC(=O)NC3CCN(Cc4ccccc4)CC3)c(=O)c21,-2.53
12,Cc1cc(Br)ccc1NC(=S)NCCc1ccccc1,14.7
13,Cc1ccc(N=Cc2cc3c(cc2O)OC(N)=C(C#N)C3c2ccccc2)cc1 (stereo not shown),4.26
14,Cc1ccc(CSCCNS(=O)(=O)c2ccccc2)cc1,1.55
15,CCOC(=O)C(Cc1ccccc1)NC(=O)CCc1c(C)nc2ncnn2c1C (stereo not shown),8.53
16,CN(CCc1ccccn1)C(=O)CCC1CCCN(C(=O)CN2CCCCCC2)C1 (stereo not shown),10
17,OCC#CCSc1nnc(-c2ccccc2Br)o1,10.7
18,CCOC(=O)N1CCN(C(=S)NC(=O)/C=C/c2ccc(C)cc2)CC1,17.3
19,COc1ccc(OC)c(NC(=O)NCCN2CCN(c3ccccc3)CC2)c1,8.91
20,O=C1CSC(=S)N1c1cccc(O)c1,12.3
21,O=C(c1cccs1)N1CCN(c2ccc(F)cc2)CC1,-2.86
22,O=C(c1ccccc1)N1CCC(c2nc(-c3ccc(S(=O)(=O)NCC4CCCO4)cc3)no2)CC1 (stereo not shown),7.92

row,Structure (SMILES),"hERG current change (%, negative = inhibition) at 1uM [%]"
1,Cc1cc(Cl)c2oc(C(=O)NC(C)c3ccncn3)c(C)c2c1 (stereo not shown),9.96
2,CCOC(=O)N1CCN(C(=O)CN(c2ccc(OCC)cc2)S(C)(=O)=O)CC1,-12.4
3,COc1ccc(Oc2ccccc2C#N)cc1,5.57
4,COc1ccc2c(c1OC)C(=O)N(c1cccc(NC(C)=O)c1)C2,12.4
5,COCC(=O)Nc1c(I)c(C(=O)NCC(O)CO)c(I)c(C(=O)N(C)CC(O)CO)c1I (stereo not shown),16.5
6,NC(=O)CN1CCN(c2ccccc2F)CC1,5.76
7,Cc1cccc(OCC(=O)N(Cc2nnc(-c3ccccc3Cl)o2)C2CC2)c1,4.44
8,O=C1CC(N2CCN(c3ccccc3)CC2)C(=O)N1c1ccc2c(c1)OCO2 (stereo not shown),20
9,Cc1cccc(NC(=O)CNC(=O)CCNC(=O)c2ccc(C(C)(C)C)cc2)c1C,5.45
10,CC(C)(C)c1ccc(OCC(=O)Nc2ccc(-c3nc4cccnc4o3)cc2)cc1,5.33
11,O=C(NCc1ccccc1F)c1cccc(S(=O)(=O)NCc2ccccc2)c1,7.27
12,O=C(NC1=NCCS1)c1ccccc1Cl,15.3
13,N=C1/C(=C/c2ccc(-c3cccc(C(=O)O)c3)o2)C(=O)N=C2SC=C(c3ccccc3)N12,13.2
14,Cc1nn(-c2ccccc2)c(C)c1/C=N/NC(=O)CSc1nnc(SCc2cccc3ccccc23)s1,5.62
15,CCc1ccc(CN2CCN(C(=O)c3cccc(OC)c3OC)CC2)cc1.O=C(O)C(=O)O,-0.969
16,Cc1ccc(CNC(=O)Cc2nc3nc(C)cc(C)n3n2)cc1,7.83
17,CCC1(c2ccc(Cl)cc2)NC(=S)N(c2ccccc2)N1 (stereo not shown),15.8
18,COc1ccc(/C=N/NC(=O)c2ccc3nc[nH]c3c2)c(OC)c1,21.5
19,O=C(NCc1cccnc1)c1cc(S(=O)(=O)N2CCCCC2)ccc1Cl,10.9
20,O=C(NCC(c1ccco1)N1CCCC1)c1cc2cc(Cl)ccc2o1 (stereo not shown),-3.88
21,Cc1ccc(S(=O)(=O)CCC(=O)NCc2ccc(Cl)cc2)cc1,12.8
22,CCCC(=O)Nc1cccc(C(=O)Nc2nccs2)c1,9.96

row,Structure (SMILES),"hERG current change (%, negative = inhibition) at 1uM [%]"
1,COc1cc([N+](=O)[O-])ccc1Nc1nc(C)cc(C)n1.Cl,15.4
2,Cc1ccc2c(c1)c(N=NC(N)=O)c(O)n2C,14.2
3,Cn1nc(CC(=O)NCc2ccc(F)cc2)c2ccccc2c1=O,0.499
4,CC(=O)C1=C(O)C(=O)N(c2ccccn2)C1c1ccc(C)cc1 (stereo not shown),10.5
5,O=C(c1ccc(Cl)cc1)C1CCN(C(=O)C2CC2)CC1,-3.66
6,CCn1cc(S(=O)(=O)c2ccc(C)cc2)c(=O)c2cc(F)c(N3CCN(C)CC3)cc21,2.95
7,Cc1ccc(C(=O)NN2C(=O)C3C4C=CC(C4)[C@@H]3C2=O)cc1 (stereo partly shown),3.83
8,CCCCn1c(C)c(C(=O)OCC)c2c(CN3CCOCC3)c(O)ccc21,-14.1
9,CC12CCC(=O)N1C(C(=O)OCc1c(Cl)cccc1Cl)CS2 (stereo not shown),8.54
10,O=C(NC(=S)Nc1ccccc1Br)c1ccco1,15.4
11,O=C(CSc1n[nH]c(-c2ccncc2)n1)Nc1ccc(Cl)c(C(=O)O)c1,15.8
12,COc1cccc(CNC(=O)N2CCN(S(=O)(=O)c3ccc(Cl)cc3)CC2)c1,9.67
13,COc1ccc(S(=O)(=O)NC2CCCCCC2)cc1C(N)=O,9.49
14,CCOC(=O)c1cn(Cc2ccccc2)nc1-c1ccccc1,14.5
15,Brc1ccc2nc(CSc3ncn[nH]3)cn2c1,11.4
16,Cc1ccc(OCC(=O)N2CCN(S(=O)(=O)c3ccccc3)CC2)c([N+](=O)[O-])n1,-12.4
17,Cc1ccc2c(c1)N(CC(=O)N(Cc1ccc3c(c1)OCO3)CC1CCCO1)C(=O)C(C)O2 (stereo not shown),-4.02
18,COc1ccc(NS(=O)(=O)c2cccc(C(=O)N/N=C/c3cn(-c4ccccc4)nc3-c3ccc(OC)cc3)c2)cc1,7.24
19,O=C(O)C(=O)O.Oc1ccccc1CN(CCc1ccccc1)Cc1ccccc1,14.4
20,CC(c1ccon1)N(C)Cc1c(C(=O)N(C)Cc2ccccc2)nc2ccccn12 (stereo not shown),8.53
21,COc1ccc(COC(=O)c2ccc3c(=O)n4c(nc3c2)CCC4)cc1F,-0.857
22,CCOC(=O)CN(C(=O)CNC(=O)c1ccco1)C(C(=O)NC1CCCCC1)c1cccs1 (stereo not shown),11.8
